In the supplement of paper PMC8728848:
The other results are listed elsewhere or left out.

Columns and labels:
Test in all cases: glycan array binding signal (z-score within array); higher = stronger binding
Conditions in all cases: glycan notation: IUPAC condensed, linker removed
[1] = target: Fuc(a1-2)[GalNAc(a1-3)]Gal(b1-4)GlcNAc(b1-3)GalNAc
In short: (§1)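 From the Consortium for Functional Glycomics database, 3228 arrays were curated, keeping only those whose protein sequence was available. Binding is given as a within-array Z-score averaged across arrays sharing a protein sequence and across linkers. Negative Z-scores can be read as non-binding.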

[2] = target: Fuc(a1-2)[GalNAc(a1-3)]Gal(b1-4)GlcNAc(b1-3)[Fuc(a1-2)[GalNAc(a1-3)]Gal(b1-4)GlcNAc(b1-6)]GalNAc
In short: as §1

[3] = target: Fuc(a1-2)[GalNAc(a1-3)]Gal(b1-4)GlcNAc(b1-6)GalNAc
In short: as §1

[4] = target: Fuc(a1-2)[GalNAc(a1-3)]Gal(b1-4)[Fuc(a1-3)]GlcNAc
In short: as §1

[5] = target: Fuc(a1-2)[GalNAc(a1-3)]Gal(b1-4)[Fuc(a1-3)]GlcNAc(b1-3)GalNAc
In short: as §1

[6] = target: Fuc(a1-2)[GalNAc(a1-4)]Gal(b1-4)GlcNAc
In short: as §1

[7] = target: Fuc(a1-2)[GalNAc(b1-3)]Gal
In short: as §1

[8] = target: Fuc(a1-3)GlcNAc
In short: as §1

[9] = target: Fuc(a1-3)[Gal(b1-4)]Glc6S
In short: as §1

[10] = target: Fuc(a1-3)[Gal(b1-4)]GlcNAc
In short: as §1

[11] = target: Fuc(a1-3)[Gal(b1-4)]GlcNAc(b1-2)Man
In short: as §1

[12] = target: Fuc(a1-3)[Gal(b1-4)]GlcNAc(b1-2)Man(a1-3)[Fuc(a1-3)[Gal(b1-4)]GlcNAc(b1-2)Man(a1-6)]Man(b1-4)GlcNAc(b1-4)GlcNAc
In short: as §1

[13] = target: Fuc(a1-3)[Gal(b1-4)]GlcNAc(b1-2)Man(a1-3)[Fuc(a1-3)[Gal(b1-4)]GlcNAc(b1-2)Man(a1-6)]Man(b1-4)GlcNAc(b1-4)[Fuc(a1-6)]GlcNAc
In short: as §1

[14] = target: Fuc(a1-3)[Gal(b1-4)]GlcNAc(b1-3)Gal(b1-3)[Fuc(a1-4)]GlcNAc
In short: as §1

[15] = target: Fuc(a1-3)[Gal(b1-4)]GlcNAc(b1-3)Gal(b1-4)[Fuc(a1-3)]GlcNAc
In short: as §1

[16] = target: Fuc(a1-3)[Gal(b1-4)]GlcNAc(b1-3)Gal(b1-4)[Fuc(a1-3)]GlcNAc(b1-3)Gal(b1-4)[Fuc(a1-3)]GlcNAc
In short: as §1

[17] = target: Fuc(a1-3)[Gal(b1-4)]GlcNAc(b1-3)GalNAc
In short: as §1

[18] = target: Fuc(a1-3)[Gal(b1-4)]GlcNAc(b1-4)Gal(b1-4)[Fuc(a1-3)]GlcNAc
In short: as §1

[19] = target: Fuc(a1-3)[Gal(b1-4)]GlcNAc(b1-4)Gal(b1-4)[Fuc(a1-3)]GlcNAc(b1-4)Gal(b1-4)[Fuc(a1-3)]GlcNAc
In short: as §1

[20] = target: Fuc(a1-3)[Gal(b1-4)]GlcNAc(b1-6)GalNAc
In short: as §1

[21] = target: Fuc(a1-3)[Gal(b1-4)]GlcNAc(b1-6)[Gal(b1-3)GlcNAc(b1-3)]Gal(b1-4)Glc
In short: as §1

[22] = target: Fuc(a1-3)[Gal(b1-4)]GlcNAc6S
In short: as §1

[23] = target: Fuc(a1-3)[Gal3S(b1-4)]Glc
In short: as §1

[24] = target: Fuc(a1-3)[Gal3S(b1-4)]Glc6S
In short: as §1

[25] = target: Fuc(a1-3)[Gal3S(b1-4)]GlcNAc
In short: as §1

[26] = target: Fuc(a1-3)[Gal3S(b1-4)]GlcNAc6S
In short: as §1

[27] = target: Fuc(a1-3)[GalNAc(b1-4)]Gal(b1-4)GlcNAc
In short: as §1

[28] = target: Fuc(a1-3)[GalNAc(b1-4)]GlcNAc
In short: as §1

[29] = target: Fuc(a1-3)[GalNAc(b1-4)]GlcNAc6S
In short: as §1

[30] = target: Fuc(a1-4)GlcNAc
In short: as §1

B1: MGL1 (Mus musculus), P49300 (protein)
chain: MIYENLQNSRIEEKTQEPGKAPSQSFLWRILSWTHLLLFSLGLSLLLLVVVSVIGSQNSQLRRDLGTLRATLDNTTSKIKAEFQSLDSRADSFEKGISSLKVDVEDHRQELQAGRDLSQKVTSLESTVEKREQALKTDLSDLTDHVQQLRKDLKALTCQLANLKNNGSEVACCPLHWTEHEGSCYWFSESEKSWPEADKYCRLENSHLVVVNSLEEQNFLQNRLANVVSWIGLTDQNGPWRWVDGTDFEKGFKNWAPLQPDNWFGHGLGGGEDCAHITTGGPWNDDVCQRTFRWICEMKLAKES
[1]
  glycan array binding signal (z-score): -0.19
[2]
  glycan array binding signal (z-score): -0.336
[3]
  glycan array binding signal (z-score): 0.044
[4]
  glycan array binding signal (z-score): -0.412
[5]
  glycan array binding signal (z-score): 0.039
[6]
  glycan array binding signal (z-score): 0.106
[7]
  glycan array binding signal (z-score): 0.21
[8]
  glycan array binding signal (z-score): -0.541
[9]
  glycan array binding signal (z-score): 1.19
[10]
  glycan array binding signal (z-score): 5.46
[11]
  glycan array binding signal (z-score): -0.622
[12]
  glycan array binding signal (z-score): 0.595
[13]
  glycan array binding signal (z-score): -0.48
[14]
  glycan array binding signal (z-score): 1.2
[15]
  glycan array binding signal (z-score): 3.95
[16]
  glycan array binding signal (z-score): 5.1
[17]
  glycan array binding signal (z-score): 0.44
[18]
  glycan array binding signal (z-score): 2.3
[19]
  glycan array binding signal (z-score): 9.12
[20]
  glycan array binding signal (z-score): -0.016
[21]
  glycan array binding signal (z-score): 2.27
[22]
  glycan array binding signal (z-score): 1.02
[23]
  glycan array binding signal (z-score): 0.153
[24]
  glycan array binding signal (z-score): -0.136
[25]
  glycan array binding signal (z-score): -0.18
[26]
  glycan array binding signal (z-score): 0.056
[27]
  glycan array binding signal (z-score): -0.145
[28]
  glycan array binding signal (z-score): 1.05
[29]
  glycan array binding signal (z-score): 0.238
[30]
  glycan array binding signal (z-score): 0.064
